In all, about 33,000 sequences were measured (“E-score (-0.5 to 0.5)”: median about -0.021, highest 2% from about 0.32 on). This is one part of the list.
molecular target: T1, Zap1 (UniProt P47043); test: PBM E-score (8-mer binding enrichment) (E-score (-0.5 to 0.5)); higher = stronger / more preferred TF binding; most listed sequences are background and not binding sites; details: protein concentration: 200 nM; construct: GST-full length
T1 sequence: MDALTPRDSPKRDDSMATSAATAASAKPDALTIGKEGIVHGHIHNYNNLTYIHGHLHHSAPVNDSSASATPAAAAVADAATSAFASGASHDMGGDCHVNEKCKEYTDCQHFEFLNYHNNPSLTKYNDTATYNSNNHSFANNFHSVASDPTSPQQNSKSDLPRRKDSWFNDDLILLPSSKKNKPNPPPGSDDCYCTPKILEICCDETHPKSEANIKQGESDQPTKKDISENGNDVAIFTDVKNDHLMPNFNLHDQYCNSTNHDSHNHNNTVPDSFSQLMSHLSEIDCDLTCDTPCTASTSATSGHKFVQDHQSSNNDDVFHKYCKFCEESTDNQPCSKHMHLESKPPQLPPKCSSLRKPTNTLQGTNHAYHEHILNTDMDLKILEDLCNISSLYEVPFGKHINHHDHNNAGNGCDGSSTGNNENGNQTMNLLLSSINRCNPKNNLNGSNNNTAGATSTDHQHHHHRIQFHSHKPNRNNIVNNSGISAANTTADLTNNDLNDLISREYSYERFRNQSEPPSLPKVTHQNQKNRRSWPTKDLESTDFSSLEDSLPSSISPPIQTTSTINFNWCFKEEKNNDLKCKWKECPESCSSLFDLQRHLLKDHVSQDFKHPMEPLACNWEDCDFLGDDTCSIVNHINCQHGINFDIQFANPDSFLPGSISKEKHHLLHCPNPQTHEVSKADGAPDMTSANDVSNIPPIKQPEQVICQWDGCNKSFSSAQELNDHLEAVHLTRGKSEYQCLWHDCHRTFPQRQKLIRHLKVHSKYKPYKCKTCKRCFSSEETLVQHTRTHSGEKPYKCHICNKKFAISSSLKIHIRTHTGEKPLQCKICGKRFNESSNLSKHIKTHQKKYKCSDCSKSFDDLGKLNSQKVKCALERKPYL
How it was run: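 Using PURExpress in vitro transcription/translation, GST-tagged yeast transcription factors were made in full-length or DNA-binding-domain form. These were applied at about 100-200 nM to double-stranded universal all-10-mer Agilent arrays, and bound protein was detected with fluorescent anti-GST. Scans were normalised with masliner before the Universal PBM Analysis Suite assigned E-scores to ungapped eight-base words pooled with their reverse complements.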

| Sequence | PBM E-score |
| --- | --- |
| CGAAGCGA | -0.193 |
| AAACTCAA | 0.192 |
| AGAGGGAC | -0.253 |
| CGTGGGTC | 0.136 |
| GAGTCGGA | -0.239 |
| GGTGCAAC | -0.066 |
| AGGACGCG | -0.0612 |
| CACGACCG | -0.0596 |
| AGCTCGCG | 0.027 |
| ACGCCGAG | -0.0289 |
| AAAAGACG | 0.00477 |
| ACAAGTTA | 0.111 |
| ACGTCTGC | -0.272 |
| AGCTTATG | 0.00685 |
| CAGTAGAG | -0.135 |
| CTGGCAAG | -0.0104 |
| ATTATCTC | -0.024 |
| AGAGCCGG | -0.164 |
| CGGTTCGA | 0.186 |
| TAAGGAAA | -0.029 |
| ATTGTTAC | 0.245 |
| GGCTGGTA | -0.129 |
| AGTTGTGC | 0.0703 |
| CCATCGGG | 0.074 |
| AGGTGCAG | -0.242 |

| Sequence | PBM E-score |
| --- | --- |
| CCGATTCC | -0.132 |
| ATACTGGC | -0.131 |
| AGAGCCCA | -0.201 |
| GAATTCTC | -0.17 |
| GATCCACC | -0.192 |
| AACGTGGT | 0.071 |
| GAAAGCCC | -0.134 |
| GCTCATAC | -0.268 |
| ATGAAGAA | 0.0935 |
| AGTCTATG | -0.132 |
| TATGACGA | -0.0547 |
| CTGCGGTC | 0.225 |
| ATCAAGCA | 0.0882 |
| CCAGTATA | 0.0579 |
| ATCCATAG | -0.114 |
| CCTTAAAA | 0.145 |
| AAGGCACT | -0.257 |
| TGAGACAA | -0.0439 |
| GAACCATA | 0.206 |
| CCTTGAAA | 0.199 |
| ATGCGGTG | -0.0188 |
| ATAAGCAA | 0.0687 |
| TGAGTACA | -0.0799 |
| CCCTATGA | 0.0442 |
| CCATTGCG | -0.126 |

| Sequence | PBM E-score |
| --- | --- |
| CTCATTAA | 0.139 |
| TCATTGGA | 0.132 |
| TGATGAAA | 0.29 |
| GCAGGAAA | 0.0975 |
| CTCAGTTA | 0.079 |
| CCGGTAGC | -0.12 |
| AGTCTCTA | -0.193 |
| AATTAGTA | 0.158 |
| CGAAGAAC | 0.118 |
| GTGCGAGA | -0.128 |
| CGGTCGAG | -0.18 |
| CTCTCTCC | -0.251 |
| ATTGCACG | 0.0703 |
| CTCCCTGC | -0.212 |
| GAGGACGA | 0.0805 |
| ACACCTCG | 0.00328 |
| AAAATGGA | 0.204 |
| CAGTCAGC | -0.16 |
| CTTCAAAA | 0.0592 |
| CATGTACG | 0.0271 |
| ACTCAATA | 0.183 |
| GAATCGAA | 0.0223 |
| GCTTTATA | -0.0325 |
| GACCGACA | -0.15 |
| GCAATAAC | 0.208 |

| Sequence | PBM E-score |
| --- | --- |
| ATAGTATA | 0.246 |
| AATCGTAC | 0.0163 |
| AATAGGAC | 0.0955 |
| CAGCGTTC | -0.25 |
| GCATGGAA | -0.169 |
| AATGTATA | 0.0785 |
| ACGTGACA | -0.11 |
| ACTGGACA | -0.0153 |
| GACCGAGC | -0.18 |
| ACTACTCT | -0.0309 |
| AGCGTCTA | -0.214 |
| GTCCGTCA | 0.147 |
| ACACCGAA | 0.11 |
| AGAAACCT | 0.116 |
| AGCAGCAC | -0.0165 |
| TACAACTA | 0.217 |
| ATGAAACA | 0.18 |
| CTGCTGAA | -0.176 |
| AGGGGTCG | 0.0682 |
| CTGTCGTC | -0.112 |
| GACCAGCC | -0.0721 |
| AACACTAT | 0.17 |
| AGTGTCAC | -0.0372 |
| CCGTGCAA | 0.0682 |
| AGAGTAAG | 0.0042 |

| Sequence | PBM E-score |
| --- | --- |
| GGATGACC | 0.279 |
| AACCAGGC | 0.0767 |
| TCGTGAGA | -0.0186 |
| CTCGCACC | -0.265 |
| AAAGGCGC | -0.0832 |
| TCAAGTCA | 0.0291 |
| GTCCGGCA | -0.162 |
| AAGGCGAA | -0.257 |
| AAGAATTC | -0.067 |
| GTCTGAAC | -0.042 |
| ACGTTTTC | -0.0317 |
| AGGCAACC | 0.203 |
| ATTAAAAA | 0.251 |
| ATATGAAC | 0.205 |
| ACCGGCAT | 0.0285 |
| CCAGTGAC | 0.00157 |
| GTCACGGA | 0.0228 |
| CAGATTGG | -0.212 |
| AAGATACA | 0.0781 |
| AAGAAGTA | -0.00592 |
| ATATGGGG | -0.0334 |
| AGAGAGCG | -0.375 |
| CACCAAGC | -0.164 |
| CAGTCCCC | -0.146 |
| ATGGGGGC | -0.162 |

| Sequence | PBM E-score |
| --- | --- |
| GGTCTGTA | 0.171 |
| CACAAATG | 0.13 |
| ACTAGACG | -0.0556 |
| GCGGACCC | 0.212 |
| GTACGGCA | -0.0507 |
| CAACGGAA | 0.0549 |
| AGTTCCTC | -0.123 |
| CCAACCGG | 0.16 |
| ATAGACAC | -0.111 |
| TGGACCAA | -0.127 |
| AGATACAC | 0.0774 |
| ACCGGGCT | -0.239 |
| GATTCGAA | 0.0926 |
| GCCGATCA | -0.135 |
| ACTAATTA | 0.233 |
| CACCATCC | -0.166 |
| AGATTGCT | -0.268 |
| CATCACAC | 0.0139 |
| AAATCAGC | 0.0543 |
| GAACAATC | -0.0113 |
| CTTCGCCC | -0.197 |
| CATGCAGG | -0.0244 |
| AGTGATGC | -0.181 |
| GTTGAATA | 0.062 |
| AAATGAGC | -0.12 |

| Sequence | PBM E-score |
| --- | --- |
| ATATCCAC | 0.0593 |
| CGTACCTC | -0.142 |
| AGGCGTAT | -0.115 |
| ATTCGGCG | -0.208 |
| CAACGCAA | -0.00542 |
| GGCGAACA | -0.0575 |
| ACATGGGG | -0.0388 |
| GCTAACAC | 0.00077 |
| CCCGGCGG | -0.0572 |
| CGTCGTCC | -0.215 |
| CCCATAAG | 0.236 |
| ACCCTAGG | 0.428 |
| AGCCTCCT | -0.238 |
| AATGGCTA | 0.171 |
| CCAAAAGA | 0.109 |
| GGGTATGA | 0.261 |
| AGGCGAGC | -0.189 |
| CACCGACG | -0.102 |
| GTTAGCAA | 0.17 |
| CAAGTTGA | -0.0363 |
| GACCATCA | 0.0776 |
| GTTGCCTA | -0.0525 |
